In PubChem BioAssay AID652106 (National Center for Advancing Translational Sciences (NCATS), 2013):
Hit rate of the full screen: of about 370,000 compounds, about 500 (0.14%) were called active. The inconclusive results got no clear call from the source; some entries with a clear call stand among them for comparison. Calls follow the shape of the dose curve; as a rule, active = well fitted activation curve with a large enough effect; inconclusive = small, poorly fitted or top-dose-only effect; inactive = no such curve, though single readings can be large or run the other way. Potencies of inconclusive entries are left out as doubtful fits.

experiment: qHTS of alpha-syn Inhibitors; conditions: Yeast expressing alpha-synuclein, BacTiter-Glo, 24 h; Potency: growth rescue unless noted; series mostly up to 46.1 µM; also: nearly all actives have a fitted effect of over 65% in size
Outline: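 Readout is rescue of growth in alpha-synuclein-expressing yeast, so inhibitors of toxicity appear as activators. Growth after 24 hr at 30 deg C in galactose medium is quantified by luminescence.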
Potency is read from the fitted curve at half-maximal effect; tags tell the direction and shape of the fitted curve.

Question: For `COc1ccc(Cc2c(-c3ccc(Cl)cc3)nc3cc(C)c(Br)c(C)n23)c(C)c1`, which Potency is on record?
Answer: inconclusive [activator, single point]

Question: With `CCSc1nnc(-c2ccncc2)o1` as the molecule, how does the Potency read?
Answer: inactive

Question: With `O=C(O)COc1ccccc1-c1nc(-c2ccccc2)c(-c2ccccc2)[nH]1` as the molecule, how does the Potency read?
Answer: inconclusive [activator, single point]

Question: For `Nc1[nH]n(-c2c(Cl)cc(Cl)cc2Cl)c(=O)c1N=Nc1ccc(S(=O)(=O)Nc2ncccn2)cc1`, which Potency is on record?
Answer: inconclusive [activator, single point]

Question: Which Potency does the source give for `C=CC(=O)NCCCc1cc(C(C)(C)C)c(O)c(C(C)(C)C)c1` here?
Answer: inconclusive [activator, single point]

Question: With `O=C1OCCN1C(=O)[C@H]1[C@H](c2ccc(F)cc2)C(c2ccc(F)cc2)=NN1c1ccccc1` as the molecule, how does the Potency read?
Answer: inconclusive [activator, partial curve]

Question: Which Potency does the source give for `O=C(NCC1CCCO1)C(c1ccc(F)cc1)N(CC1CCCO1)C(=O)c1ccc(-c2ccccc2)[nH]1` (centres undefined) here?
Answer: inactive

Question: Which Potency does the source give for `CC(=O)N(C)c1ccc(OCC(O)Cn2c3ccc(Cl)cc3c3cc(Cl)ccc32)cc1` (centres undefined) here?
Answer: inconclusive [activator, single point]

Question: Which Potency does the source give for `Cc1cccc(N2CCN(C(=O)c3ccc(CS(=O)Cc4ccc(Cl)cc4)o3)CC2)c1C` (centres undefined) here?
Answer: inconclusive [activator, single point]

Question: For `Cc1ccc(-c2cccc(C(=O)NCc3ccccc3)n2)c2ccccc12`, which Potency is on record?
Answer: inconclusive [activator, partial curve]

Question: With `COc1ccc2c(CC(=O)OCC(=O)c3ccccc3OC)coc2c1` as the molecule, how does the Potency read?
Answer: inconclusive [activator, single point]

Question: Which Potency does the source give for `CCOC(=O)NNC(=O)c1[nH]c2ccc(Br)cc2c1-c1ccccc1` here?
Answer: inconclusive [activator, single point]

Question: With `O=C(CSCc1ccccc1Cl)NNC(=O)c1ccccc1` as the molecule, how does the Potency read?
Answer: inconclusive [activator, single point]

Question: For `Cc1ccc(/C=C2/C(=O)ON=C2c2ccccc2)o1`, which Potency is on record?
Answer: inconclusive [activator, partial curve]

Question: For `O=C(C1CCCCC1)N1CCC(CO)(Cc2ccccc2Cl)CC1`, which Potency is on record?
Answer: inconclusive [activator, single point]

Question: With `COC(=O)[C@]12CCCCC=C1N(Cc1ccco1)C(=O)[C@H](CC(=O)NCCCN1CCCC1=O)C2` as the molecule, how does the Potency read?
Answer: inconclusive [activator, single point]

Question: Which Potency does the source give for `COc1ccccc1S(=O)(=O)Cc1ccc(C(=O)NCCN(C)C)o1` here?
Answer: inconclusive [activator, single point]

Question: With `COc1ccc(C(C)(O)c2nc(/C=C/c3ccccc3)cs2)cc1` (centres undefined) as the molecule, how does the Potency read?
Answer: inconclusive [activator, single point]

Question: With `Cc1ccc(OCc2nnc(SCC(=O)c3ccccc3)n2-c2ccccc2)cc1` as the molecule, how does the Potency read?
Answer: inactive

Question: With `CC(C)N(N=Nc1ccc([N+](=O)[O-])cc1)C(C)C` as the molecule, how does the Potency read?
Answer: inactive

Question: Which Potency does the source give for `Cn1nnnc1Sc1ncnc2scc(-c3ccc(F)cc3)c12` here?
Answer: inconclusive [activator, single point]

Question: For `CN(C)CC(C(=O)c1ccccc1)c1ccccc1` (centres undefined), which Potency is on record?
Answer: inactive

Question: Which Potency does the source give for `Cc1ccc(C(=O)O)cc1-c1ccc(/C=C2/NC(=O)N(c3ccccc3)C2=O)o1` here?
Answer: inconclusive [activator, single point]

Question: For `CCc1nc2sc(C#N)c(N)c2c2c1CCCC2`, which Potency is on record?
Answer: inactive

Question: For `Fc1ccc(C(Nc2ccccn2)c2c[nH]c3ccccc23)cc1` (centres undefined), which Potency is on record?
Answer: inconclusive [activator, single point]

Question: For `Cc1cc(C)c(S(=O)(=O)N2CCN(C(=O)c3ccc4c(c3)OCO4)CC2)c(C)c1`, which Potency is on record?
Answer: inactive

Question: With `O=C(/C=C/c1ccc(F)cc1)N1CCCc2ccccc21` as the molecule, how does the Potency read?
Answer: inactive

Question: For `CN(C)CCOC1c2ccccc2C=Cc2ccccc21`, which Potency is on record?
Answer: inconclusive [activator, single point]

Question: With `c1ccc2oc(SCc3nc4ccccc4s3)nc2c1` as the molecule, how does the Potency read?
Answer: inconclusive [activator, single point]

Question: Which Potency does the source give for `COc1cc(CNn2c(C)n[nH]c2=S)cc(Br)c1OCc1ccc(F)cc1` here?
Answer: inactive

Question: For `O=C(Cn1nc2sc3ccccc3n2c(=O)c1=O)c1ccc(Cl)cc1`, which Potency is on record?
Answer: inconclusive [activator, single point]

Question: With `CN1CCN(CC(=O)Nc2cccc([N+](=O)[O-])c2)CC1` as the molecule, how does the Potency read?
Answer: inconclusive [activator, single point]

Question: With `CCN(CC)/[N+]([O-])=N/OCOC(=O)Cc1c(C)n(C(=O)c2ccc(Cl)cc2)c2ccc(OC)cc12` as the molecule, how does the Potency read?
Answer: inconclusive [activator, single point]

Question: For `O=C(O)CCCCCN1C(=O)/C(=C\c2ccncc2)SC1=S`, which Potency is on record?
Answer: inconclusive [activator, partial curve]

Question: Which Potency does the source give for `O=C(O)COc1ccccc1C1C2C(=O)N(c3ccccc3)C(=O)C2ON1c1ccccc1` (centres undefined) here?
Answer: inconclusive [activator, single point]

Question: Which Potency does the source give for `CCS(=O)(=O)CCSc1nc2ccccc2s1` here?
Answer: inactive

Question: Which Potency does the source give for `COc1ccc(N2CCN(C(=O)c3ccc(N(C)S(=O)(=O)c4ccc(OC)cc4)cc3)CC2)cc1` here?
Answer: inactive

Question: For `Cc1ccc(C(=O)NCCN(C)C)cc1C`, which Potency is on record?
Answer: inactive

Question: Which Potency does the source give for `COc1ccccc1-c1n[nH]nc1C1=CC(=O)CC(C)(C)C1` here?
Answer: inconclusive [activator, single point]

Question: Which Potency does the source give for `CC(=O)C1=CCC(c2ccc(F)cc2)N(S(=O)(=O)c2ccc(C)cc2)C1` (centres undefined) here?
Answer: inconclusive [activator, single point]

Question: For `COc1ccc(-c2csc(C(C)(O)c3ccc(OC)cc3)n2)cc1` (centres undefined), which Potency is on record?
Answer: active: 6.31 µM

Question: With `Cc1ccc(CN2C(=O)c3ccccc3C2c2nnnn2C(C)C)cc1` (centres undefined) as the molecule, how does the Potency read?
Answer: inconclusive [activator, single point]

Question: For `CC(=O)c1c(C)oc2c(Cl)cc(NS(=O)(=O)c3ccc(Cl)cc3)cc12`, which Potency is on record?
Answer: inconclusive [activator, single point]

Question: With `COc1ccc(CN(Cc2cc3cc(OC)c(OC)cc3[nH]c2=O)C(=O)NC2CCCCC2)cc1` as the molecule, how does the Potency read?
Answer: inactive
